{
  "source": "the supplement of paper PMC8728848",
  "assay_in_all_cases": "glycan array binding signal (z-score within array); higher = stronger binding",
  "conditions_in_all_cases": "glycan notation: IUPAC condensed, linker removed",
  "key": {"[1]": {"target": "Gal(b1-4)GlcNAc(b1-3)Gal(b1-4)GlcNAc(b1-3)Gal(b1-4)GlcNAc", "summary_of_the_method": "(§1)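 Glycan array data were curated from 3228 arrays in the Consortium for Functional Glycomics database and kept only where the protein sequence was available. Glycan names were converted to IUPAC-condensed notation, and columns mapping to the same glycan were averaged. The binding signal is a within-array Z-score, averaged across arrays of the same protein sequence at different concentrations or buffers and across linkers. Negative Z-scores can be read as non-binding.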"}, "[2]": {"target": "Gal(b1-4)GlcNAc(b1-3)Gal(b1-4)GlcNAc(b1-3)Gal(b1-4)GlcNAc(b1-2)Man(a1-3)[Gal(b1-4)GlcNAc(b1-3)Gal(b1-4)GlcNAc(b1-3)Gal(b1-4)GlcNAc(b1-2)Man(a1-6)]Man(b1-4)GlcNAc(b1-4)GlcNAc", "summary_of_the_method": "as §1"}, "[3]": {"target": "Gal(b1-4)GlcNAc(b1-3)Gal(b1-4)GlcNAc(b1-3)Gal(b1-4)GlcNAc(b1-2)Man(a1-3)[Gal(b1-4)GlcNAc(b1-3)Gal(b1-4)GlcNAc(b1-3)Gal(b1-4)GlcNAc(b1-2)Man(a1-6)]Man(b1-4)GlcNAc(b1-4)[Fuc(a1-6)]GlcNAc", "summary_of_the_method": "as §1"}, "[4]": {"target": "Gal(b1-4)GlcNAc(b1-3)Gal(b1-4)GlcNAc(b1-3)Gal(b1-4)GlcNAc(b1-2)[Gal(b1-4)GlcNAc(b1-3)Gal(b1-4)GlcNAc(b1-3)Gal(b1-4)GlcNAc(b1-6)]Man(a1-6)[Gal(b1-4)GlcNAc(b1-3)Gal(b1-4)GlcNAc(b1-3)Gal(b1-4)GlcNAc(b1-2)Man(a1-3)]Man(b1-4)GlcNAc(b1-4)[Fuc(a1-6)]GlcNAc", "summary_of_the_method": "as §1"}, "[5]": {"target": "Gal(b1-4)GlcNAc(b1-3)Gal(b1-4)GlcNAc(b1-3)Gal(b1-4)GlcNAc(b1-3)Gal(b1-4)GlcNAc(b1-2)Man(a1-3)[Gal(b1-4)GlcNAc(b1-3)Gal(b1-4)GlcNAc(b1-3)Gal(b1-4)GlcNAc(b1-3)Gal(b1-4)GlcNAc(b1-2)Man(a1-6)]Man(b1-4)GlcNAc(b1-4)GlcNAc", "summary_of_the_method": "as §1"}, "[6]": {"target": "Gal(b1-4)GlcNAc(b1-3)Gal(b1-4)GlcNAc(b1-3)Gal(b1-4)GlcNAc(b1-3)Gal(b1-4)GlcNAc(b1-2)Man(a1-3)[Gal(b1-4)GlcNAc(b1-3)Gal(b1-4)GlcNAc(b1-3)Gal(b1-4)GlcNAc(b1-3)Gal(b1-4)GlcNAc(b1-2)Man(a1-6)]Man(b1-4)GlcNAc(b1-4)[Fuc(a1-6)]GlcNAc", "summary_of_the_method": "as §1"}, "[7]": {"target": "Gal(b1-4)GlcNAc(b1-3)Gal(b1-4)GlcNAc(b1-3)Gal(b1-4)GlcNAc(b1-3)Gal(b1-4)GlcNAc(b1-2)[Gal(b1-4)GlcNAc(b1-3)Gal(b1-4)GlcNAc(b1-3)Gal(b1-4)GlcNAc(b1-3)Gal(b1-4)GlcNAc(b1-6)]Man(a1-6)[Gal(b1-4)GlcNAc(b1-3)Gal(b1-4)GlcNAc(b1-3)Gal(b1-4)GlcNAc(b1-3)Gal(b1-4)GlcNAc(b1-2)Man(a1-3)]Man(b1-4)GlcNAc(b1-4)[Fuc(a1-6)]GlcNAc", "summary_of_the_method": "as §1"}, "[8]": {"target": "Gal(b1-4)GlcNAc(b1-3)Gal(b1-4)GlcNAc(b1-3)Gal(b1-4)GlcNAc(b1-3)Gal(b1-4)GlcNAc(b1-3)Gal(b1-4)GlcNAc(b1-2)Man(a1-3)[Gal(b1-4)GlcNAc(b1-3)Gal(b1-4)GlcNAc(b1-3)Gal(b1-4)GlcNAc(b1-3)Gal(b1-4)GlcNAc(b1-3)Gal(b1-4)GlcNAc(b1-2)Man(a1-6)]Man(b1-4)GlcNAc(b1-4)GlcNAc", "summary_of_the_method": "as §1"}, "[9]": {"target": "Gal(b1-4)GlcNAc(b1-3)Gal(b1-4)GlcNAc(b1-3)Gal(b1-4)GlcNAc(b1-3)Gal(b1-4)GlcNAc(b1-3)Gal(b1-4)GlcNAc(b1-2)Man(a1-3)[Gal(b1-4)GlcNAc(b1-3)Gal(b1-4)GlcNAc(b1-3)Gal(b1-4)GlcNAc(b1-3)Gal(b1-4)GlcNAc(b1-3)Gal(b1-4)GlcNAc(b1-2)Man(a1-6)]Man(b1-4)GlcNAc(b1-4)[Fuc(a1-6)]GlcNAc", "summary_of_the_method": "as §1"}, "[10]": {"target": "Gal(b1-4)GlcNAc(b1-3)Gal(b1-4)GlcNAc(b1-3)Gal(b1-4)GlcNAc(b1-3)Gal(b1-4)GlcNAc(b1-3)Gal(b1-4)GlcNAc(b1-2)[Gal(b1-4)GlcNAc(b1-3)Gal(b1-4)GlcNAc(b1-3)Gal(b1-4)GlcNAc(b1-3)Gal(b1-4)GlcNAc(b1-3)Gal(b1-4)GlcNAc(b1-6)]Man(a1-6)[Gal(b1-4)GlcNAc(b1-3)Gal(b1-4)GlcNAc(b1-3)Gal(b1-4)GlcNAc(b1-3)Gal(b1-4)GlcNAc(b1-3)Gal(b1-4)GlcNAc(b1-2)Man(a1-3)]Man(b1-4)GlcNAc(b1-4)[Fuc(a1-6)]GlcNAc", "summary_of_the_method": "as §1"}, "[11]": {"target": "Gal(b1-4)GlcNAc(b1-3)Gal(b1-4)GlcNAc(b1-3)Gal(b1-4)GlcNAc(b1-3)Gal(b1-4)GlcNAc(b1-3)Gal(b1-4)GlcNAc(b1-3)Gal(b1-4)GlcNAc(b1-2)Man(a1-3)[Gal(b1-4)GlcNAc(b1-3)Gal(b1-4)GlcNAc(b1-3)Gal(b1-4)GlcNAc(b1-3)Gal(b1-4)GlcNAc(b1-3)Gal(b1-4)GlcNAc(b1-3)Gal(b1-4)GlcNAc(b1-2)Man(a1-6)]Man(b1-4)GlcNAc(b1-4)GlcNAc", "summary_of_the_method": "as §1"}, "[12]": {"target": "Gal(b1-4)GlcNAc(b1-3)Gal(b1-4)GlcNAc(b1-3)GalNAc", "summary_of_the_method": "as §1"}, "[13]": {"target": "Gal(b1-4)GlcNAc(b1-3)Gal(b1-4)GlcNAc(b1-3)[Gal(b1-4)GlcNAc(b1-3)Gal(b1-4)GlcNAc(b1-6)]GalNAc", "summary_of_the_method": "as §1"}, "[14]": {"target": "Gal(b1-4)GlcNAc(b1-3)Gal(b1-4)GlcNAc(b1-6)[Gal(b1-3)]GalNAc", "summary_of_the_method": "as §1"}, "[15]": {"target": "Gal(b1-4)GlcNAc(b1-3)Gal(b1-4)[Fuc(a1-3)]GlcNAc(b1-3)Gal(b1-4)[Fuc(a1-3)]GlcNAc", "summary_of_the_method": "as §1"}, "[16]": {"target": "Gal(b1-4)GlcNAc(b1-3)GalNAc", "summary_of_the_method": "as §1"}, "[17]": {"target": "Gal(b1-4)GlcNAc(b1-3)[Fuc(a1-3)GlcNAc(b1-6)]Gal(b1-4)Glc", "summary_of_the_method": "as §1"}, "[18]": {"target": "Gal(b1-4)GlcNAc(b1-3)[Gal(b1-4)GlcNAc(b1-6)]Gal(b1-4)GlcNAc", "summary_of_the_method": "as §1"}, "[19]": {"target": "Gal(b1-4)GlcNAc(b1-3)[GlcNAc(b1-6)]Gal(b1-4)GlcNAc", "summary_of_the_method": "as §1"}},
  "note": "Some of the results follow.",
  "data": [
    {"binder": "DC-ASGPR S+GEE (Homo sapiens) (protein) MTRTYENFQYLENKVKVQGFKNGPLPLQSLLQRLRSGPCHLLLSLGLGLLLLVIICVVGFQNSKFQRDLVTLRTDFSNFTSNTVAEIQALTSQGSSLEETIASLKAEVEGFKQERQAVHSEMLLRVQQLVQDLKKLTCQVATINNNGEEASTEGTCCPVNWVEHQDSCYWFSHSGMSWAEAEKYCQLKNAHLVVINSREEQNFVQKYLGSAYTWMGLSDPEGAWKWVDGTDYATGFQNWKPGQPDDWQGHGLGGGEDCAHFHPDGRWNDDVCQRPYHWVCEAGLGQTSQESH", "values": [
      {"measurement": "glycan array binding signal (z-score)", "setting": "[1]", "result": -0.321},
      {"measurement": "glycan array binding signal (z-score)", "setting": "[2]", "result": -0.277},
      {"measurement": "glycan array binding signal (z-score)", "setting": "[3]", "result": -0.481},
      {"measurement": "glycan array binding signal (z-score)", "setting": "[4]", "result": -0.356},
      {"measurement": "glycan array binding signal (z-score)", "setting": "[5]", "result": -0.235},
      {"measurement": "glycan array binding signal (z-score)", "setting": "[6]", "result": -0.335},
      {"measurement": "glycan array binding signal (z-score)", "setting": "[7]", "result": -0.145},
      {"measurement": "glycan array binding signal (z-score)", "setting": "[8]", "result": -0.04},
      {"measurement": "glycan array binding signal (z-score)", "setting": "[9]", "result": -0.153},
      {"measurement": "glycan array binding signal (z-score)", "setting": "[10]", "result": 0.027},
      {"measurement": "glycan array binding signal (z-score)", "setting": "[11]", "result": -0.167},
      {"measurement": "glycan array binding signal (z-score)", "setting": "[12]", "result": -0.337},
      {"measurement": "glycan array binding signal (z-score)", "setting": "[13]", "result": -0.314},
      {"measurement": "glycan array binding signal (z-score)", "setting": "[14]", "result": -0.312},
      {"measurement": "glycan array binding signal (z-score)", "setting": "[15]", "result": -0.159},
      {"measurement": "glycan array binding signal (z-score)", "setting": "[16]", "result": -0.316},
      {"measurement": "glycan array binding signal (z-score)", "setting": "[17]", "result": -0.364},
      {"measurement": "glycan array binding signal (z-score)", "setting": "[18]", "result": -0.354},
      {"measurement": "glycan array binding signal (z-score)", "setting": "[19]", "result": -0.368}
    ]}
  ]
}
